Results: article PMC12136788
The other results are listed elsewhere or left out.

T1: UNK ZnF1-3 (human, UniProt Q9C0B0 31-174)
T1 sequence: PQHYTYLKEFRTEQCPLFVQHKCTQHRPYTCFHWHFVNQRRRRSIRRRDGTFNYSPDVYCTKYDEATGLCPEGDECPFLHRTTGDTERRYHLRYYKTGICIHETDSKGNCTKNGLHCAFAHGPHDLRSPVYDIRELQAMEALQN

B1: 74381551_74381671_2928_3pUTR_ENSG00000114978_ENST00000396049|human|control|control (ssRNA)
RNA: GGGAGUUCUACAGUCCGACGAUCUCUUGAGUCUCAAAAUACCAACACAUCUCUGAUUUAUGUCCCAUUUAUAAGCUGCCUUUACUACUGUCCUGACAUGUGAUCGUCUUUCAUUUGCUUUGGAGCUUAGUGGUGAAGAGAGGGCAACAGAGGAUUGAGCAUCA
B2: chr1:46159212:46159213:+_ENSG00000159596_ENST00000372025|hu_mus|hu_hu_hu_mus_True|1_108 (ssRNA)
RNA: GGGAGUUCUACAGUCCGACGAUCUCUGAUCCCACCCAAGAAAGCUAGGAAACCGGCUCCAUAAGCCAUCUGAGUGAAAGCUAGGACGGGGAUAUAAGACUUUGUUAUUACCAUGAGAAGUGGGGGAGCAGUAAAGGGGAUUAGCAACAGAGGAUUGAGCAUCA
B3: chr12:21919153:21919154:-_ENSG00000121361_ENST00000240662|hu_hu|FALSE|FALSE (ssRNA)
RNA: GGGAGUUCUACAGUCCGACGAUCAUACAGGGGACUGCGCUUGUCAAUCACGUGGCAGAUGAUCAAAGGGGCCACCAGAAAAAUGUUAUUGCUCUCGAUUGGGUUAUCAACAGGAAUGUCCAGUUGGUGAAUAGGAACCACCUCCAACAGAGGAUUGAGCAUCA
B4: chr4:40680069:40680070:+_ENSMUSG00000028410_ENSMUST00000030118|mus_mus|FALSE|FALSE (ssRNA)
RNA: GGGAGUUCUACAGUCCGACGAUCAGUCAGAGCUUUUAUAUUUGUGUUUAUUCUUCAUUUAACUUUUUUUAAAACACUACUAUAGUUGAAUAUUAAAACAAAAACAAUAGCCAAGUAGUGAGCUUAUUAUGAUUACAGUCCUUCCAACAGAGGAUUGAGCAUCA
B5: chr5:144471560:144471561:-_ENSMUSG00000051306_ENSMUST00000053287|mus_mus|FALSE|FALSE (ssRNA)
RNA: GGGAGUUCUACAGUCCGACGAUCAGACUUCAAUAUCAUAUUGUCGAGACGAGACACAGUAUAAAAAGUGUUAGGUAAAAAAAACAUACUGUAGGCUUUACAAAUAAUGUCUGGAUUAUACAUUCAUAAUGCAAAUACUCAUCACAACAGAGGAUUGAGCAUCA
B6: chr3:100058692:100058693:+_ENSG00000114021_ENST00000480073|hu_hu|FALSE|FALSE (ssRNA)
RNA: GGGAGUUCUACAGUCCGACGAUCAUAUUCAGGAAAAUAUUUCGCUCCAUAUGGAGAAUUAAAGCAUUCCGGCAAAGAAACUAUUUUGGCUCCUUGCGUUGCUGCCUCCCGGAUGAAGCUACAAGCGCGAGUGACGUUAUCUGACAACAGAGGAUUGAGCAUCA
B7: 52759336_52769516_3469_CDS_ENSG00000157077_ENST00000287727|human|control|control (ssRNA)
RNA: GGGAGUUCUACAGUCCGACGAUCGGUAUACUGGUAAUUUCUGAAGUCUGCAAGAAGAUUCAUGAUGGUAUGCCCCGUCUCUCCAAACAAUGGCUUCCGAAAUCUGACACUGAAUAGUGGGCAUGGAUAAAGUCGAUAUUCAGCCAACAGAGGAUUGAGCAUCA
B8: chr7:135832511:135832512:+_ENSMUSG00000042105_ENSMUST00000118605|mus_hu|FALSE|FALSE (ssRNA)
RNA: GGGAGUUCUACAGUCCGACGAUCAUUAAUAUUUACAUCAGCCAAACAUGAUCCCCAGUCAAAAACAUUAUGUCCUUAACAAAAAGCACUUGGCACGUAACAGGCAGUCGGAAAAUGUCAACCCUCCCCCCACCCCCAAUUUUACAACAGAGGAUUGAGCAUCA
B9: chr3:38534408:38534409:+_ENSG00000114739_ENST00000352511|hu_hu|motif|central (ssRNA)
RNA: GGGAGUUCUACAGUCCGACGAUCUUCAAGCAGCAAAACCCCAACUUAGCAGAUCUAAUUUCAAACUUGACACUCAUUUCGGAAAUUACCACAGUAAAAAGGAACAAAGAUCCACUGCAAAUGAAUGAACUAUGAUACAAUGUUCAACAGAGGAUUGAGCAUCA
B10: chr1:219384882:219384883:+_ENSG00000143353_ENST00000366928|hu_mus|motif|central (ssRNA)
RNA: GGGAGUUCUACAGUCCGACGAUCGCUCACUCCUAGAGAUUUCAGUUUUGAGUUUGUCUCCUUGCCCCAAGCAUGCAGAACGGGGUUAUCUGCAGAGCCGUGACACUGGAAGAGCUCAGGGAGCAUGCGGCCACCUUGCUGAAGCAACAGAGGAUUGAGCAUCA
B11: chr5:135912371:135912372:-_ENSMUSG00000039959_ENSMUST00000060311|mus_mus|FALSE|FALSE (ssRNA)
RNA: GGGAGUUCUACAGUCCGACGAUCCAUGUUGUCCAGCUGCCCUGUCAGUCCACUGAUCUCUCUGUACAGGCGUUCAAUCAAGUGGUCCUUCUCGUCCUUGUUCACGCCAUUUUGAUUGUUGAAAUUGAAAGGGUCGCUGCUCAACAACAGAGGAUUGAGCAUCA
B12: 63592093_63593034_1452_3pUTR_ENSMUSG00000025964_ENSMUST00000114107|mouse|control|control (ssRNA)
RNA: GGGAGUUCUACAGUCCGACGAUCCCAAAGUAACUCAGACUGCUUCUCUUAUAAUGGAAUGUCACGCGCGAGAUGAGGUGGACCGCGUCAGCGUGCUGUUUGAUUCGCUGCCGGUACUUGGAGAAGUCAUGUAGCAUCUGCACGCAACAGAGGAUUGAGCAUCA
B13: chr6:136509389:136509390:+_ENSMUSG00000030213_ENSMUST00000032335|mus_mus|motif|central (ssRNA)
RNA: GGGAGUUCUACAGUCCGACGAUCGACAUUACUGUUCACUUUAUUUCCCUCAUCACAGGAGUCUUUACUUUGAAUUUGGUCGGAGUGUUCGUCGUCUUCACUCUUGCCUGGACAAUCAUCACUGUUAUUGCUACUCGGCUCUGUCAACAGAGGAUUGAGCAUCA
B14: chr4:109959894:109959895:-_ENSMUSG00000028546_ENSMUST00000106598|mus_hu|FALSE|FALSE (ssRNA)
RNA: GGGAGUUCUACAGUCCGACGAUCCUUCGACUCUUCUGUUAAAAUUUGCAAAGAUUUCAGAAUAUAUAUUUAAAAUGACUACUAUUGUUAUAUAUAAUUAAAGAUCCACAAAACACAGUGUGGAUGAUUGUAAAGCAAAUCAAUCAACAGAGGAUUGAGCAUCA
B15: 48543412_48543532_713_CDS_ENSG00000177981_ENST00000317697|human|control|control (ssRNA)
RNA: GGGAGUUCUACAGUCCGACGAUCUGUUCCAAGUCCCCUGACUAGCAGAGCCACCAGGCGGGAGAUGGGUGUCUGGCCUAUUAGGUUGAUGACUCUGACCUCUGCGCCAUAAUCCAGAAGGAUGCUGACACUCUCAAGAUUUCCCAACAGAGGAUUGAGCAUCA
B16: chr3:179287964:179287965:+_ENSG00000136518_ENST00000429709|hu_hu|hu_hu_hu_mus_True|28_58 (ssRNA)
RNA: GGGAGUUCUACAGUCCGACGAUCCUUGAGUGGUGAGAUGGCCUCCAUGUUCUCCCUGGGCACGCGGAGGGCAUUGGUAUCUAUGUAGUAGGUGGGCCCGCCCUGCUUGCCUUUAUCACCAUCAAUCUCCAUCAUUGUACUUCCCAACAGAGGAUUGAGCAUCA
B17: chr11:62363965:62363966:-_ENSG00000149480_ENST00000278823|perfect_dup|FALSE|FALSE (ssRNA)
RNA: GGGAGUUCUACAGUCCGACGAUCCAAUCUUUUCUGCUGAAUAUACCGGUCUGUGGUUUUCCACAUGUAAUAAAACUGGACUAUGCUUGCAAGUGACUUCCAGGGUAGAAAGUCCUGGCGGAUAUCAUUGAAAUCCUUCCCGUACAACAGAGGAUUGAGCAUCA
B18: chr7:23239867:23239868:+_ENSG00000136243_ENST00000258742|hu_mus|motif|central (ssRNA)
RNA: GGGAGUUCUACAGUCCGACGAUCUCCAAAUACUGAAGUGCUUCCGGAAGGAGGAGUGGCAAGUCCAGGGCUUGUUUUAAAACGGAAGUUCUGAACAGUACUGCUGCUGCUGUUAUUCACUGGGAAGCCUGGUGACCCAAACGACAACAGAGGAUUGAGCAUCA
B19: chr9:56909451:56909452:+_ENSMUSG00000032290_ENSMUST00000034832|mus_mus|FALSE|FALSE (ssRNA)
RNA: GGGAGUUCUACAGUCCGACGAUCCACAUACGUACACACACACACACACAGAAUGACAGAAAAGACUGGAAUACACGCCCUAUGUAUAAACGUGCUUGGCACUCGGGACAUUCUCUAGAAUAUGUAACUUGGUCAAGCUUUCUGCAACAGAGGAUUGAGCAUCA
B20: 32897347_32897467_5049_3pUTR_ENSMUSG00000013663_ENSMUST00000013807|mouse|control|control (ssRNA)
RNA: GGGAGUUCUACAGUCCGACGAUCUUCCGUCUGCAUGCACGACACAUUAACAGUAUUUAAAGGUAAACGAGGCACUUUGUGGCAACCACAGCCAUCGUUAUGAACAUAUUGCACAAAUUUUCUAAAACUAAACAUGUAACUUGUCAACAGAGGAUUGAGCAUCA
B21: chr11:100577090:100577091:-_ENSMUSG00000019173_ENSMUST00000107364|mus_mus|motif|central (ssRNA)
RNA: GGGAGUUCUACAGUCCGACGAUCAAAGGGUGACUGCUCCAAGCCCUGUCCCCACGGAUGAGGAGCACAGGAGCAUGGCGGCGGCCAGCAAAGGGCAAGUGGGGGAGCGGGAGAAAGGGACCUGGGAAGAGCAGAAGAUCAUAUCAACAGAGGAUUGAGCAUCA
B22: 123908528_123911063_1935_CDS_ENSG00000119397_ENST00000373850|human|control|control (ssRNA)
RNA: GGGAGUUCUACAGUCCGACGAUCACUGCCUUCCUUCCCAUCCUGCUGCCCAGGGCGUGGUUUUCUAACAGGAGUUGAGGCUGAGUACUUAAGGCCAACACCAGAGUCCUUGGUGGCCUGGGAACUAUGGCUGGAAACUUUUGACAACAGAGGAUUGAGCAUCA

These binders were tested against T1, UNK ZnF1-3 (assay: nsRBNS (natural sequence RNA bind-n-seq); RBNS binding buffer (assumed for nsRBNS): 25 mM Tris pH 7.5, 150 mM KCl, 3 mM MgCl2, 0.01% Triton X-100, 500 ug/ml BSA, 20 U/ml SUPERase-In, 4 C; UNK is unkempt and MSI1 is Musashi-1; names of the RNAs are library labels; protein concentration not given here; high values mean tight binding).

Row | Binder | binding signal
1 | B1 | 0.772 enrichment R
2 | B2 | 1.26 enrichment R
3 | B3 | 1.49 enrichment R
4 | B4 | 1.73 enrichment R
5 | B5 | 1.18 enrichment R
6 | B6 | 0.543 enrichment R
7 | B7 | 0.796 enrichment R
8 | B8 | 1.96 enrichment R
9 | B9 | 1.43 enrichment R
10 | B10 | 1.39 enrichment R
11 | B11 | 0.71 enrichment R
12 | B12 | 0.74 enrichment R
13 | B13 | 0.317 enrichment R
14 | B14 | 2.6 enrichment R
15 | B15 | 0.859 enrichment R
16 | B16 | 0.752 enrichment R
17 | B17 | 1.14 enrichment R
18 | B18 | 2.2 enrichment R
19 | B19 | 1.23 enrichment R
20 | B20 | 1.15 enrichment R
21 | B21 | 1.27 enrichment R
22 | B22 | 1.45 enrichment R
